Test results published in the supplement of paper PMC3334620.
The full ranking holds about 33,000 sequences; the median of “E-score (-0.5 to 0.5)” is about -0.053, and the highest 2% start at about 0.37. This is one part of the list.

Each sequence was assayed against Hap1 (UniProt P0CE41) (assay: PBM E-score (8-mer binding enrichment) (E-score (-0.5 to 0.5)); higher = stronger / more preferred TF binding; most listed sequences are background and not binding sites). Conditions: protein concentration: 200 nM; construct: GST-DNA-binding domain.
UniProt P0CE41, sequence (P0CE41 whole entry, the tested form may be a part): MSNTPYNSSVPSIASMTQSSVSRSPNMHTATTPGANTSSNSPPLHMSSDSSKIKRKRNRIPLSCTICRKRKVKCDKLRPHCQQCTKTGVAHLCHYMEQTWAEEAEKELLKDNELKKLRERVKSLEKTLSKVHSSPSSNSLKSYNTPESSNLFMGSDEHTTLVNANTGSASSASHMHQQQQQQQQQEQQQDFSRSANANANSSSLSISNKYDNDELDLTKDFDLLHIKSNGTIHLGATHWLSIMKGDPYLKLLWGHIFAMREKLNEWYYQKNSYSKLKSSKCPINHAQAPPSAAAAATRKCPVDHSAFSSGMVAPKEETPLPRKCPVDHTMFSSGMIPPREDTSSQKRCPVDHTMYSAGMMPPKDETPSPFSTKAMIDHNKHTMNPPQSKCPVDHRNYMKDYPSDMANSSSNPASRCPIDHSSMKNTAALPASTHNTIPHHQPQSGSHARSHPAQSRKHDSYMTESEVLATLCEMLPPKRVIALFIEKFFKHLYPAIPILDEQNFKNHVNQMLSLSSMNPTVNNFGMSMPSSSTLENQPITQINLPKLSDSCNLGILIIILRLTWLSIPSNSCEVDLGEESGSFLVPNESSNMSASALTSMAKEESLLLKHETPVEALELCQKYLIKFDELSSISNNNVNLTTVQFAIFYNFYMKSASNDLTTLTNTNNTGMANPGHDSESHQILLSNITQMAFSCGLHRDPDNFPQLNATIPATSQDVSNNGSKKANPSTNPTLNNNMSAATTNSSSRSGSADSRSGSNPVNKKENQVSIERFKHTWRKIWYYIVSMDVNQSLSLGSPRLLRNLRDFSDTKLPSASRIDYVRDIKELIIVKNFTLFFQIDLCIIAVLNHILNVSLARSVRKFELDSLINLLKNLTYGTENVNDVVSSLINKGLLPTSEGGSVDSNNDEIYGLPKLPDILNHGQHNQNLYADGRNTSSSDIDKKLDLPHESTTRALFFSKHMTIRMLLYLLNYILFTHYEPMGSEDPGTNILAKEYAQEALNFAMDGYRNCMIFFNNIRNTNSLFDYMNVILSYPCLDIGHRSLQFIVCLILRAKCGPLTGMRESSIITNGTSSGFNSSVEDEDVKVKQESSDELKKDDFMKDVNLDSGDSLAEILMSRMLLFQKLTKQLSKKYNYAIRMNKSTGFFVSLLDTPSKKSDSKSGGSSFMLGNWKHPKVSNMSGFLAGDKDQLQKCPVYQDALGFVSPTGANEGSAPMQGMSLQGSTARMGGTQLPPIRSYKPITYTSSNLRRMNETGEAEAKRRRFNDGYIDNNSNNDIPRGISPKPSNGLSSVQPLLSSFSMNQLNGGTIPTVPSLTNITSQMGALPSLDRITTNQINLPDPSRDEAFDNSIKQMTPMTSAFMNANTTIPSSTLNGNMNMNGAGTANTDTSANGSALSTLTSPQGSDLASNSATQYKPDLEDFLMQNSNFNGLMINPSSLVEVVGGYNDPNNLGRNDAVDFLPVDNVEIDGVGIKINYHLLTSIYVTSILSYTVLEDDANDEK
In short: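 For each ungapped eight-base word taken together with its reverse complement, the Universal PBM Analysis Suite assigned an E-score. Binding data came from GST-tagged yeast transcription factors, applied at about 100-200 nM, on universal all-10-mer Agilent arrays made double-stranded by primer extension. Fluorescent anti-GST marked bound protein, and scans were normalised with masliner.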

Sequence | PBM E-score
GATCACAA | 0.0173
ATATACAA | 0.0542
TATCAAAA | -0.0714
ACTACATC | -0.0278
CTCGTCAC | -0.126
CAACTTTA | -0.13
GAAACGGC | 0.108
CCAAGCAC | -0.0712
GCCCGAGA | 0.391
GGACGAAC | 0.278
CCGAATAC | 0.365
AAATAATG | 0.0355
GCTAAGCA | -0.0915
GTAAGATA | -0.0022
ACCCTGGC | -0.146
CGTTGTAA | 0.0216
ATATGGTA | -0.134
AACGTAGT | -0.279
CACATTGA | -0.0713
GGTGTTAA | 0.334
GCCGGTCA | 0.177
GCGAAACA | -0.0189
ACCATTGC | -0.076
CGAGTTAC | -0.0647
CTCAATTC | 0.012

Sequence | PBM E-score
CTCACGAG | -0.227
AGAGGTTC | 0.0367
ATCATGCA | -0.312
GTGTGTAA | -0.199
ACGATCGT | -0.0959
AGAACCAC | -0.0218
CCTCTTGA | -0.315
GGCCTGTA | 0.0111
GTGGGGAA | 0.00337
AAGGCCAT | 0.112
CTGCGCAC | -0.0769
AAACCGTG | 0.0323
ACTTTTGG | -0.00588
TATCCATA | -0.0118
CCTGCAGC | -0.248
CCGTTACA | 0.339
GCCGCATA | 0.234
TATCGGGA | 0.393
AAATAGAT | 0.104
AGTTAGTG | -0.135
TGCCAACA | -0.122
TGTAGGAA | -0.186
ATGTCCTA | -0.188
ACATCCCT | -0.00826
AAATACCG | 0.32

Sequence | PBM E-score
CACGTCCC | -0.171
AGGTTGAA | -0.139
AAGAGCTG | -0.232
TTATAGAA | -0.275
CGCCACAG | -0.216
AGGCCCAA | -0.0947
CCTGTTTC | -0.183
CCGAAATA | 0.351
ATTGAAAG | -0.157
AGCAGTCA | -0.123
GGCTCATA | -0.0837
CTGATAGC | -0.0461
CATTCCGA | 0.294
GGGGCCCA | -0.0401
CAAATCAG | -0.279
TACGACGA | -0.11
ACCCCAAA | 0.00371
CCTAAATA | -0.188
AGCACCTC | -0.0891
AACAAGGG | -0.0715
ATATTTCA | -0.15
CTCCCAAA | -0.15
AAGATCTG | -0.158
AAAATGGT | 0.0826
CGCATCAA | 0.148

Sequence | PBM E-score
AAACAAAC | -0.219
ATTGACCC | -0.0115
ACTCAACG | -0.023
ACGGCGCT | 0.0711
ACTTAAGG | 0.00027
ATAGGTGG | -0.178
GAGAGCTA | -0.0786
AACGACGA | 0.0635
GAAGATGA | -0.214
ACCGTACA | -0.0557
GTACGCCA | -0.235
CTGACTAC | -0.141
ACTAAACG | -0.112
GGAGTATA | 0.206
TCCGGCGA | 0.362
GACCTCCA | 0.0493
CCGGACAA | 0.414
AACGCGGC | 0.154
CGGTCTTC | 0.148
GTGATCGA | -0.094
ATGAATGA | -0.194
GGAAAGCC | 0.147
CCCATGAG | -0.202
GTCCCTTA | -0.0555
ATTGGCCA | -0.144

Sequence | PBM E-score
TGGTGCAA | -0.287
CGATTCCG | 0.363
CTCGTAGA | -0.274
AGCTTACA | -0.183
TAGCGGCA | 0.227
GGGAGGAA | 0.19
GAAGTGGA | -0.0709
AAACCAGC | 0.0273
ACCGGCGA | 0.39
CTCTATAA | -0.193
ATAAGCAC | -0.0528
TACTGACA | -0.0892
CATATAGG | -0.0486
ACTGTGAT | -0.21
AAACTATC | -0.0386
CTGGGTGC | -0.134
ACATCATC | -0.203
GGCCAATA | 0.215
CATTTCGA | -0.0843
CTGGAATC | -0.051
TCATTGAA | -0.157
GAGCGGGA | 0.0462
CACAGGCC | -0.185
GGGCACAC | -0.119
CCGGAAGG | 0.313

Sequence | PBM E-score
CTTTAACC | -0.0789
AACTATGC | 0.116
ACGTTGAG | -0.0884
AAGCCAAA | -0.183
CATAGCCC | -0.135
ATAAACTG | -0.00148
TAGAATAA | 0.0891
CATCTGGC | -0.122
AAATTATA | 0.152
CTGGCCGC | -0.119
CTCAGTAA | -0.232
GAATAAGA | -0.00974
CTTGGTGA | -0.102
AATTAAGC | 0.102
CCTGAGTA | -0.197
AAATGCTG | -0.137
AGCGATGG | 0.0259
CCAATTAC | -0.0755
AATGGTAG | -0.158
GTCGCTGA | -0.0897
GACCACAA | 0.0577
CATCAAGG | -0.295
GTACTAAC | 0.00479
ACATACAG | -0.134
GAGACTAC | 0.00699

Sequence | PBM E-score
CCGAAAAC | 0.379
AAGACTGA | -0.252
ACCTACAG | 0.0147
CTCCGTGA | 0.313
CCTATGCG | 0.00275
AACCGTCG | 0.099
ATCCCGCA | 0.0537
CATCGTGC | -0.267
AAAAGCGA | 0.271
GTCCTTGA | -0.184
CGCAGAGC | 0.012
CTAACTGC | -0.0433
AACCCCCC | -0.191
ATGCCCCC | -0.0822
GCATCTTA | -0.0356
ACCCTTTA | 0.0194
AGCCCCCC | -0.0912
ACGGCAAA | 0.143
CAATATCG | 0.236
ATTATAAG | -0.105
GCTTAGGA | -0.101
CGGAGCCA | 0.289
